According to PubChem BioAssay AID493208 (National Center for Advancing Translational Sciences (NCATS), 2011):
Out of some 44,000 compounds screened, about 340 (0.77%) were called active. Roughly 5% stayed inconclusive and do not appear here. Calls follow the shape of the dose curve; as a rule, active = well fitted inhibition curve with a large enough effect; inconclusive = small, poorly fitted or top-dose-only effect; inactive = flat fitted curve, though single readings scatter. The list shows a part of the results.

Assay: Acumen qHTS Assay for Inhibitors of the mTORC1 Signaling Pathway in MEF (Tsc2-/-, p53-/-) Cells: Sytravon;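 also: plate controls were DMSO for no effect and rapamycin for full effect; nearly all actives have a fitted effect of over 50% in size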
Conditions: phospho-rpS6 immunofluorescence/PI, 24 h; series mostly up to 38.3 µM; activity change, negative = inhibition: at the top concentration
Method in brief: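 Read-out: phospho-S6 Alexa-488 intensity over PI intensity per well, scored as % active cells using thresholds from rapamycin (7.5 nM) and DMSO controls. Tsc2-/-, p53-/- MEFs exposed to compound for 24 h; PI cell count recorded as viability.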

Activity change, negative = inhibition, inactive:
Cc1cccc(N2CCN(C(=O)C3CCN(S(=O)(=O)c4c(C)noc4C)CC3)CC2C)c1 (stereo unspecified) -14.6%
CCCS(=O)(=O)c1c(S(=O)(=O)CCC)c2cc(C(C)(C)C)ccn2c1C(=O)c1ccccc1 7.1%
Cc1c(C(=O)Nc2ccccc2)sc2nc(-c3cc4cc(Cl)ccc4oc3=O)[nH]c(=O)c12 -1.8%
COc1cccc(N2CCN(C(=O)C3CCN(S(=O)(=O)c4c(C)noc4/C=C/c4ccccc4F)CC3)CC2)c1 -4.21%
CCC(=O)Nc1ccccc1-c1nc2ccccc2n(CC(=O)Nc2ccccc2OC)c1=O -13.1%
Cc1ccccc1C(=O)Nc1ccc2nc(N3CCCCC3)cc(C)c2c1 -16.5%
COC(=O)c1ccc(NC(=O)CC2C(=O)N(c3ccccc3)C(=O)N2Cc2ccc(F)cc2)cc1 (stereo unspecified) 1.03%
CCN(CC)C(=O)c1sc2c(c1C)c(=O)n(CCc1ccccc1)c(=O)n2Cc1cc(C)ccc1C -2.94%
COc1cccc(N2CCN(C(=O)c3cc4c(s3)-c3ccccc3OC4)CC2)c1 -9.47%
CC(C)(C)C(=O)NCC(c1ccc2c(c1)OCO2)N1CCOCC1 (stereo unspecified) 0.333%
O=C(CSc1nnc(-c2cccs2)o1)Oc1ccccc1Cl 0.298%
O=C(NCCc1ccc(Cl)cc1)c1ccc(CS(=O)(=O)c2ccc(Cl)cc2)o1 12.5%
Cc1cccc(C)c1NC(=O)C(NS(=O)(=O)c1cccs1)c1ccccc1 (stereo unspecified) 7.49%
O=C(Cn1ccn(-c2ccc(F)cc2)c(=O)c1=O)Nc1ccc(F)cc1 -2.78%
O=C(Cn1ncc2c3ccccc3n(Cc3cccc(Cl)c3)c2c1=O)Nc1ccc(F)cc1F -12.6%
COc1cc(CNC(=O)c2ccc3c(c2)c(C)c(C)n3Cc2cccc(C)c2)cc(OC)c1OC -7.43%
CCCCN(C)C(=O)CSc1nc2ccccc2nc1Cc1ccc(C)cc1 0%
Cc1ccc2[nH]c(=O)c3cc(C(=O)NC4CCC(C)CC4)sc3c2c1 (stereo unspecified) -2.89%
CCOc1ccc(NC(=O)c2cc(S(=O)(=O)N3CCN(c4ccccc4F)CC3)ccc2F)cc1 8.76%
COc1ccccc1CNC(=O)C(=O)NCC(c1cccs1)S(=O)(=O)c1cccs1 (stereo unspecified) -7.55%
Cc1ccc2oc(C(=O)N(Cc3sccc3C)C3CCS(=O)(=O)C3)c(C)c2c1 (stereo unspecified) 4.71%
COc1cccc(CNC(=O)c2nc(Cn3nc(C)c(Br)c3C)no2)c1 3.14%
CCOc1ccc(Nc2c(S(=O)(=O)c3ccc(C)cc3)cnc3ccc(F)cc23)cc1 -9.25%
COc1ccc(-n2c(=O)c3c4c(sc3n(C)c2=O)CN(C(C)=O)CC4)cc1 -20.9%
O=c1cc(-c2ccccc2)n2c(SCc3ccccc3Cl)nnc2[nH]1 0.192%
COc1ccccc1C(=O)Nc1nnc2n1CCS2 -2.01%
COc1cccc2c1cc1c(=O)n(CC(=O)NCc3ccco3)nc(C)n12 -4.58%
Cc1ccc(CCNC(=O)CN(c2ccc(C)cc2)S(=O)(=O)N(C)C)cc1 -4.81%
Cc1c(Cl)cccc1NC(=O)CSc1nc(=O)n(Cc2ccco2)c2c1CCC2 -6.73%
CCCCCNC(=O)C1CCC(Cn2c(=O)c3sccc3n(CC(=O)NCc3cccc(OC)c3OC)c2=O)CC1 (stereo unspecified) 13.7%
CCCCC(=O)Nc1nnc(S(=O)(=O)N(C)Cc2ccccc2)s1 7.57%
CN(C)c1ccc(CNC(=O)C2CCN(Cc3cc4ccccc4n3Cc3ccccc3)CC2)cc1 -14.3%
CCSc1nnc2c(n1)OC(c1ccc(OC)c(OC)c1)N(C(C)=O)c1ccccc1-2 (stereo unspecified) 7.03%
Cc1cccc(N(C)S(=O)(=O)c2cc3[nH]c(=O)c(=O)[nH]c3cc2C)c1 -0.789%
O=C1C(=O)N(C2CCN(C(=O)c3ccccc3F)CC2)CCN1Cc1ccc(F)cc1 -7.68%
COc1ccc(Cl)cc1NC(=O)CSc1ccc2nnc(CCNS(=O)(=O)c3ccccc3)n2n1 4.83%
Cc1ccc(-c2noc(CSc3nnc(C)n3-c3ccc(C)c(C)c3)n2)cc1 5.02%
COc1ccccc1CNC(=O)COCc1cc(-c2ccc3c(c2)OCO3)on1 -1.06%
CCOc1ccc(S(=O)(=O)Nc2ccc3oc4c(c3c2)CC(C)CC4)cc1 (stereo unspecified) -13.1%
COc1ccc(/C=C(\C#N)c2nc3ccccc3c(=O)[nH]2)cc1OC -1.39%
O=C(COc1ccc(F)cc1)OCc1cc(=O)n2nc(-c3cccs3)sc2n1 -19.9%
CC(C)CN(CC(C)C)CC(O)Cn1cc(/C=C/C(=O)c2ccccc2)c2ccccc21 (stereo unspecified) -1.71%
COc1cccc(CNS(=O)(=O)c2c(C(=O)N3CCC(C)CC3)c(C)n(C)c2C)c1 12.5%
CCc1ccc(NC(=O)C2=CC(c3cccs3)=NS(=O)(=O)N2C)cc1 -2.14%
COc1cc(NS(=O)(=O)c2c(C)nc3sc(C)c(C)n3c2=O)cc(OC)c1 -4.88%
COc1ccc(C(=O)NCc2ccc3c(c2)CCN3C(=O)c2ccc(F)cc2)cc1 0.719%
CCOc1ccccc1CNC(=O)Cn1nc(N2CCN(c3ccccc3)CC2)ccc1=O -9.88%
COc1ccc(C)c2sc(NC(=O)c3ccc(S(=O)(=O)N4CCCC4)cc3)nc12 8.97%
Cn1nnnc1SCCCNCc1cccc(OCc2ccccc2)c1 -20.6%
CC1CCN(S(=O)(=O)c2ccc3c(c2)N(CC(=O)NCC(C)c2ccccc2)C(=O)CO3)CC1 (stereo unspecified) 1.12%
O=C(NCc1ccc(Cl)cc1)NC1COc2ccccc2C1 (stereo unspecified) 0.724%
O=C(NCc1ccco1)c1ccc(Cn2c(SCc3ccccc3F)nc3cccnc32)cc1 0.0186%
CCN1CCN(c2ncnc3c2cnn3-c2cccc(C)c2)CC1 -4.78%
CN(C)c1ccc(CNC(=O)C2COc3ccccc3C2)cc1 (stereo unspecified) -3.99%
O=C(CSc1ncccc1C(=O)Oc1ccccc1Cl)Nc1ccccc1Cl 3.23%
O=C(NC1CCCCC1)c1ccc2c(c1)N(Cc1ccccc1Cl)C(=O)c1ccccc1S2 -5.17%
COc1ccc(CCNC(=O)Cn2cc(S(=O)(=O)Cc3ccc(F)cc3)c3ccccc32)cc1OC -11.1%
CCOc1ccccc1NC(=O)C1CCCN1S(=O)(=O)c1ccc2nc(-c3ccccc3)[nH]c2c1 (stereo unspecified) -19.5%
CCOc1ccc(C(=O)c2oc3ccccc3c2NC(=O)c2cc(-c3ccc(C)cc3)on2)cc1 0.289%
Cc1ccc(-c2cc(C(F)(F)F)n3ncc(-c4ccccc4)c3n2)cc1 6.29%
O=C(Nc1cccc(F)c1)c1oc2ccccc2c1NC(=O)C12CC3CC(CC(C3)C1)C2 -9.38%
O=S(=O)(c1ccccc1)c1nnn2c1nc(NCc1ccccc1)c1cc(Cl)ccc12 -0.789%
CC(C)c1ccc(NC(=O)CCS(=O)(=O)c2ccc3c(c2)CC(=O)N3C)cc1 -3.69%
Cc1nc2nc(C)c(CCC(=O)NCc3ccccc3)c(C)n2n1 -0.399%
CCOc1ccc2ncc3c(-c4cccc(OC)c4)nn(-c4ccccc4)c3c2c1 -7.93%
Cc1ccc2occ(CC(=O)Nc3ccc(S(=O)(=O)N4CCC(C)CC4)cc3)c2c1 -27.2%
COc1cccc(Cc2nc3ccccc3nc2SCC(=O)Nc2cc(OC)ccc2OC)c1 3.19%
CCOCCn1ccc2c(OCC(=O)Nc3cccc(F)c3)cccc2c1=O -12%
CCOc1cc(-c2ccc(OC(=O)c3ccccc3)c(OC)c2)cc(=O)c2c(C)oc(C)c12 -26.1%
CCOc1ccccc1CNCCSc1nnnn1C 1.9%
O=c1c2sc3ccccc3c2n(Cc2ccccc2)c(=O)n1CCc1ccccc1 0.14%
COc1ccc(C)cc1Nc1ncnc2c1c(-c1ccccc1)cn2-c1ccc(C)cc1 9.57%
CCN(CCCNC(=O)CN1N=C(c2ccccc2)CCC1=O)c1ccccc1 9.54%
COc1ccc(S(=O)(=O)N2CCC(C(=O)Nc3cc(C(F)(F)F)ccc3Cl)CC2)cc1 1.78%
COc1ccc(OC)c2sc(N3CCN(C(=O)C4COc5ccccc5O4)CC3)nc12 (stereo unspecified) -2.95%
Cc1ccc(S(=O)(=O)C(CNC(=O)COc2ccccc2)c2ccco2)cc1 (stereo unspecified) -6.15%
CCCN(CCC)C(=O)Cn1c(=O)n(CCCCCC(=O)NCc2ccccc2Cl)c(=O)c2sccc21 -0.9%
CCCOc1ccc(-c2cc(C(F)(F)F)c(C#N)c(SCCC(=O)O)n2)cc1 1.76%
CC(C)CCNC(=O)C(Cc1ccccc1)NS(=O)(=O)c1ccc2c(c1)c(=O)n(C)c(=O)n2C (stereo unspecified) -0.183%
CS(=O)(=O)N1CCc2cc(C(=O)Nc3ccc(C(F)(F)F)cc3)ccc21 -23.7%
Cc1cc(C)n(-c2nc3cc(Cl)ccc3nc2N2CCN(c3ccccc3F)CC2)n1 -7.59%
Cc1ccc(CNC(=O)CSc2nc3n[nH]c(C)c3c(=N)n2-c2ccccc2Cl)cc1 -1.71%
O=C(Nc1ccccc1C(=O)OCc1cc(=O)n2nc(C3CC3)sc2n1)c1cccc(F)c1 4.72%
O=C(Nc1ccc(F)c(Cl)c1)N1CCC(CN2CCOCC2)CC1 0.931%
Cc1nc2sccn2c(=O)c1S(=O)(=O)Nc1cc(C(F)(F)F)ccc1Cl -0.415%
CCOCCCn1c(SCC(=O)Nc2ccccc2Cl)nc2c(oc3ccccc32)c1=O -11.6%
Cc1ccccc1OCCCCn1nnc2sc3c(c2c1=O)CCC(C)C3 (stereo unspecified) 0.674%
Cc1ccc(CCNC(=O)c2ccc3c(c2)nc2n3CCOC2)cc1 -4.53%
CN1C(=O)C2(SCC(=O)N2c2ccc(Cl)cc2)c2ccccc21 (stereo unspecified) -7.01%
COCCNC(=O)c1ccc(-c2nc(CS(=O)(=O)c3ccccc3)c(C)o2)cc1 -2.99%
CCOc1ccc(NC(=O)CSc2nc3ccsc3c(=O)n2CCCCCC(=O)O)cc1 -0.878%
CCOc1ccc(NCc2nc3ccccc3n2CCOc2ccc(C)cc2)cc1 -1.46%
CC(=O)N1CCCc2cc(S(=O)(=O)N3CCCC(C(=O)NCc4ccc(C)cc4)C3)ccc21 (stereo unspecified) -7.33%
CCc1nn2c(=O)c(S(=O)(=O)Nc3ccc(C(C)C)cc3)c(C)nc2s1 -9.38%
CCc1ccc(-n2nc3ccc(NC(=O)COc4ccc(OC)cc4)cc3n2)cc1 -3.19%
O=C(CSc1nc2c(c(=O)[nH]1)CN(Cc1ccc3c(c1)OCO3)CC2)Nc1ccccc1Cl -2.04%
